# Measurements: the supplement of paper PMC8728848
# The list shows a part of the results.
# B1: DC-ASGPR L+GEE (Homo sapiens) (protein)
# chain: MTRTYENFQYLENKVKVQGFKNGPLPLQSLLQRLRSGPCHLLLSLGLGLLLLVIICVVGFQNSKFQRDLVTLRTDFSNFTSNTVAEIQALTSQGSSLEETIASLKAEVEGFKQERQAGVSELQEHTTQKAHLGHCPHCPSVCVPVHSEMLLRVQQLVQDLKKLTCQVATLNNNGEEASTEGTCCPVNWVEHQDSCYWFSHSGMSWAEAEKYCQLKNAHLVVINSREEQNFVQKYLGSAYTWMGLSDPEGAWKWVDGTDYATGFQNWKPGQPDDWQGHGLGGGEDCAHFHPDGRWNDDVCQRPYHWVCEAGLGQTSQESH
# Assays:
# Assay in all cases: glycan array binding signal (z-score within array); higher = stronger binding
# Conditions in all cases: glycan notation: IUPAC condensed, linker removed
# Glc(b1-4)Glc = molecular target: Glc(b1-4)Glc
# Procedure, shortened: (§1)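 Columns mapping to the same glycan were averaged after glycan names were converted to IUPAC-condensed notation. The data come from 3228 arrays in the Consortium for Functional Glycomics database, limited to those with an available protein sequence. Binding is reported as a within-array Z-score averaged across arrays of one protein sequence and across linkers.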
# Glc(b1-6)Glc = molecular target: Glc(b1-6)Glc
# Procedure, shortened: as §1
# GlcA(b1-3)Gal = molecular target: GlcA(b1-3)Gal
# Procedure, shortened: as §1
# GlcA(b1-3)GlcNAc = molecular target: GlcA(b1-3)GlcNAc
# Procedure, shortened: as §1
# GlcA(b1-6)Gal = molecular target: GlcA(b1-6)Gal
# Procedure, shortened: as §1
# [1] = molecular target: GlcA3S(b1-3)Gal(b1-4)GlcNAc(b1-2)Man
# Procedure, shortened: as §1
# [2] = molecular target: GlcA3S(b1-3)Gal(b1-4)GlcNAc(b1-3)Gal(b1-4)Glc
# Procedure, shortened: as §1
# [3] = molecular target: GlcNAc(a1-3)Gal(b1-4)GlcNAc
# Procedure, shortened: as §1
# [4] = molecular target: GlcNAc(a1-4)Gal(b1-3)GlcNAc
# Procedure, shortened: as §1
# [5] = molecular target: GlcNAc(a1-4)Gal(b1-4)GalNAc
# Procedure, shortened: as §1
# [6] = molecular target: GlcNAc(a1-4)Gal(b1-4)GlcNAc
# Procedure, shortened: as §1
# [7] = molecular target: GlcNAc(a1-4)Gal(b1-4)GlcNAc(b1-3)Gal(b1-4)Glc
# Procedure, shortened: as §1
# [8] = molecular target: GlcNAc(a1-4)Gal(b1-4)GlcNAc(b1-3)Gal(b1-4)GlcNAc
# Procedure, shortened: as §1
# [9] = molecular target: GlcNAc(a1-4)Gal(b1-4)GlcNAc(b1-3)Gal(b1-4)GlcNAc(b1-3)Gal(b1-4)GlcNAc
# Procedure, shortened: as §1
# [10] = molecular target: GlcNAc(a1-4)Gal(b1-4)GlcNAc(b1-3)Gal(b1-4)[Fuc(a1-3)]GlcNAc(b1-3)Gal(b1-4)[Fuc(a1-3)]GlcNAc
# Procedure, shortened: as §1
# [11] = molecular target: GlcNAc(a1-6)Gal(b1-4)GlcNAc
# Procedure, shortened: as §1
# [12] = molecular target: GlcNAc(b1-2)Gal(b1-3)GalNAc
# Procedure, shortened: as §1
# [13] = molecular target: GlcNAc(b1-2)Man(a1-3)[GlcNAc(b1-2)Man(a1-6)]Man(b1-4)GlcNAc(b1-4)GlcNAc
# Procedure, shortened: as §1
# [14] = molecular target: GlcNAc(b1-2)Man(a1-3)[GlcNAc(b1-2)Man(a1-6)]Man(b1-4)GlcNAc(b1-4)[Fuc(a1-6)]GlcNAc
# Procedure, shortened: as §1
# [15] = molecular target: GlcNAc(b1-2)Man(a1-3)[GlcNAc(b1-4)][GlcNAc(b1-2)Man(a1-6)]Man(b1-4)GlcNAc(b1-4)GlcNAc
# Procedure, shortened: as §1
# [16] = molecular target: GlcNAc(b1-2)Man(a1-3)[GlcNAc(b1-4)][GlcNAc(b1-2)Man(a1-6)]Man(b1-4)GlcNAc(b1-4)[Fuc(a1-6)]GlcNAc
# Procedure, shortened: as §1
# [17] = molecular target: GlcNAc(b1-2)[GlcNAc(b1-4)]Man(a1-3)[GlcNAc(b1-2)Man(a1-6)]Man(b1-4)GlcNAc(b1-4)GlcNAc
# Procedure, shortened: as §1
# [18] = molecular target: GlcNAc(b1-2)[GlcNAc(b1-4)]Man(a1-3)[GlcNAc(b1-4)][GlcNAc(b1-2)Man(a1-6)]Man(b1-4)GlcNAc(b1-4)GlcNAc
# Procedure, shortened: as §1
# [19] = molecular target: GlcNAc(b1-2)[GlcNAc(b1-4)]Man(a1-3)[GlcNAc(b1-4)][GlcNAc(b1-2)[GlcNAc(b1-6)]Man(a1-6)]Man(b1-4)GlcNAc(b1-4)GlcNAc
# Procedure, shortened: as §1
# [20] = molecular target: GlcNAc(b1-2)[GlcNAc(b1-4)]Man(a1-3)[GlcNAc(b1-4)][GlcNAc(b1-2)[GlcNAc(b1-6)]Man(a1-6)]Man(b1-4)GlcNAc(b1-4)[Fuc(a1-6)]GlcNAc
# Procedure, shortened: as §1
# [21] = molecular target: GlcNAc(b1-2)[GlcNAc(b1-6)]Man(a1-6)[GlcNAc(b1-2)Man(a1-3)]Man(b1-4)GlcNAc(b1-4)GlcNAc
# Procedure, shortened: as §1
# [22] = molecular target: GlcNAc(b1-2)[GlcNAc(b1-6)]Man(a1-6)[GlcNAc(b1-2)Man(a1-3)]Man(b1-4)GlcNAc(b1-4)[Fuc(a1-6)]GlcNAc
# Procedure, shortened: as §1
# [23] = molecular target: GlcNAc(b1-2)[GlcNAc(b1-6)]Man(a1-6)[GlcNAc(b1-4)][GlcNAc(b1-2)Man(a1-3)]Man(b1-4)GlcNAc(b1-4)GlcNAc
# Procedure, shortened: as §1
# GlcNAc(b1-3)Fuc = molecular target: GlcNAc(b1-3)Fuc
# Procedure, shortened: as §1
# GlcNAc(b1-3)Gal = molecular target: GlcNAc(b1-3)Gal
# Procedure, shortened: as §1
# [24] = molecular target: GlcNAc(b1-3)Gal(b1-3)GalNAc
# Procedure, shortened: as §1
# GlcNAc(b1-3)Gal(b1-4)Glc = molecular target: GlcNAc(b1-3)Gal(b1-4)Glc
# Procedure, shortened: as §1
# [25] = molecular target: GlcNAc(b1-3)Gal(b1-4)GlcNAc
# Procedure, shortened: as §1
# [26] = molecular target: GlcNAc(b1-3)Gal(b1-4)GlcNAc(b1-2)Man(a1-3)[GlcNAc(b1-3)Gal(b1-4)GlcNAc(b1-2)Man(a1-6)]Man(b1-4)GlcNAc(b1-4)GlcNAc
# Procedure, shortened: as §1
# [27] = molecular target: GlcNAc(b1-3)Gal(b1-4)GlcNAc(b1-2)Man(a1-3)[GlcNAc(b1-3)Gal(b1-4)GlcNAc(b1-2)Man(a1-6)]Man(b1-4)GlcNAc(b1-4)[Fuc(a1-6)]GlcNAc
# Procedure, shortened: as §1
# [28] = molecular target: GlcNAc(b1-3)Gal(b1-4)GlcNAc(b1-2)[GlcNAc(b1-3)Gal(b1-4)GlcNAc(b1-6)]Man(a1-6)[GlcNAc(b1-3)Gal(b1-4)GlcNAc(b1-2)Man(a1-3)]Man(b1-4)GlcNAc(b1-4)GlcNAc
# Procedure, shortened: as §1
# [29] = molecular target: GlcNAc(b1-3)Gal(b1-4)GlcNAc(b1-3)Gal(b1-4)GlcNAc
# Procedure, shortened: as §1
binder,measurement,setting,value
B1,glycan array binding signal (z-score),Glc(b1-4)Glc,-0.46
same,glycan array binding signal (z-score),Glc(b1-6)Glc,-0.795
same,glycan array binding signal (z-score),GlcA(b1-3)Gal,-0.508
same,glycan array binding signal (z-score),GlcA(b1-3)GlcNAc,-0.546
same,glycan array binding signal (z-score),GlcA(b1-6)Gal,-0.198
same,glycan array binding signal (z-score),[1],0.035
same,glycan array binding signal (z-score),[2],-0.149
same,glycan array binding signal (z-score),[3],0.302
same,glycan array binding signal (z-score),[4],-0.553
same,glycan array binding signal (z-score),[5],-0.609
same,glycan array binding signal (z-score),[6],-0.367
same,glycan array binding signal (z-score),[7],-0.225
same,glycan array binding signal (z-score),[8],0.092
same,glycan array binding signal (z-score),[9],-0.224
same,glycan array binding signal (z-score),[10],-0.234
same,glycan array binding signal (z-score),[11],-0.323
same,glycan array binding signal (z-score),[12],0.079
same,glycan array binding signal (z-score),[13],-0.307
same,glycan array binding signal (z-score),[14],-0.25
same,glycan array binding signal (z-score),[15],-0.461
same,glycan array binding signal (z-score),[16],-0.392
same,glycan array binding signal (z-score),[17],-0.298
same,glycan array binding signal (z-score),[18],-0.37
same,glycan array binding signal (z-score),[19],-0.359
same,glycan array binding signal (z-score),[20],0.115
same,glycan array binding signal (z-score),[21],-0.312
same,glycan array binding signal (z-score),[22],-0.268
same,glycan array binding signal (z-score),[23],-0.217
same,glycan array binding signal (z-score),GlcNAc(b1-3)Fuc,-0.669
same,glycan array binding signal (z-score),GlcNAc(b1-3)Gal,-0.121
same,glycan array binding signal (z-score),[24],-0.27
same,glycan array binding signal (z-score),GlcNAc(b1-3)Gal(b1-4)Glc,-0.031
same,glycan array binding signal (z-score),[25],-0.217
same,glycan array binding signal (z-score),[26],-0.024
same,glycan array binding signal (z-score),[27],0.045
same,glycan array binding signal (z-score),[28],0.114
same,glycan array binding signal (z-score),[29],-0.3
